# PubChem BioAssay AID1476 (National Center for Advancing Translational Sciences (NCATS), 2009)
# Several values for one entry are separate records, joined by “and”; a condition that tells them apart may be missing. Identical values can stand only once. In all, about 200,000 compounds went through this assay and about 4,500 (2.2%) were called active. The shares of active, inactive and inconclusive entries below differ from those in the screen. The call rests on the fitted dose curve; in most records, active means well fitted inhibition curve with a large enough effect; inconclusive means small, poorly fitted or top-dose-only effect, or effect the other way; inactive means flat fitted curve, though single readings scatter. Potencies beside an inconclusive call are fits to weak or partial responses and may not hold up.
# Target: Cruzipain (Trypanosoma cruzi) (UniProt P25779)
# Chain of UniProt P25779 (P25779 whole entry, looked up): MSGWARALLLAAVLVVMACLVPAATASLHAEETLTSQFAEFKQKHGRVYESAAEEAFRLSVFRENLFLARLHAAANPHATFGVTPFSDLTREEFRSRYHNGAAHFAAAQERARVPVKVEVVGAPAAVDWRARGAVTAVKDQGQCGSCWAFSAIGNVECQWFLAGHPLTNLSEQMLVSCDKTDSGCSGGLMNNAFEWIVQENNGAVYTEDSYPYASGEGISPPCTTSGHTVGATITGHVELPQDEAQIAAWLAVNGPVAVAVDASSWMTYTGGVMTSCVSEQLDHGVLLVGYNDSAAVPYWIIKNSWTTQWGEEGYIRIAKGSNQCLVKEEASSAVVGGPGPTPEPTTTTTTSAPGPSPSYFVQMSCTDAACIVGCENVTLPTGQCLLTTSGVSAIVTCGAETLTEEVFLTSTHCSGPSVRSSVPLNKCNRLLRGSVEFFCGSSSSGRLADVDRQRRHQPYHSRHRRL
# Experiment: qHTS Assay for Promiscuous and Specific Inhibitors of Cruzain (without detergent); further: nearly all actives have a fitted effect of over 40% in size;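 on max response, negative = inhibition: plate controls were enzyme without inhibitor for no effect and buffer without enzyme for full effect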
# Details: purified cruzain, Z-FR-AMC fluorescence, no detergent
# In short: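 Purified cruzain at 1.5 nM, pre-incubated 15 min with compound at room temperature in 100 mM sodium acetate pH 5.5, 5 mM DTT, 0.00005% Triton X-100. Reaction started with 2 uM Z-FR-AMC; AMC fluorescence increase over 60 s gives rate.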
# Potency means the concentration at half of the fitted maximal effect; tags describe the fitted curve by direction and shape.
Compound,Potency,"max response, negative = inhibition"
O=S(=O)(c1ccc(S(=O)(=O)N2CCN(C/C=C/c3ccccc3)CC2)cc1)N1CCCC1,"inconclusive: 39.8 µM [inhibitor, single point]",–
CCCOc1ccc(C2C(=O)N(C3CCCCC3)CC(=O)N2CCCOCC)cc1OC (centres undefined),"inconclusive: 25.1 µM [activator, single point]",–
N#Cc1c(NC(=O)CSc2ncnc3sccc23)oc(-c2ccco2)c1-c1ccco1,active: 25.1 µM,–
Cn1cccc1C1(C(F)(F)F)NCCNC1=O (centres undefined),"inconclusive: 25.1 µM [inhibitor, single point]",–
CC(C)NC(=O)C(=O)NCCN1CCN(S(=O)(=O)c2ccc(Cl)cc2)CC1,–,inactive: -2.28%
CC(C)c1ccccc1NC(=O)COC(=O)c1c2c(nc3ccccc13)CCN(Cc1ccccc1)C2,"inconclusive: 25.1 µM [inhibitor, partial curve, poor fit]",–
CCCCCCC(=O)Nc1nc(C)c(-c2csc(Nc3cc(OC)ccc3OC)n2)s1,active: 10 µM,–
CCOC(=O)N1CCN(c2c(NCCCN(CC)CC)c(=O)c2=O)CC1,–,inactive: -7.92%
CC1CCCCN1C(=O)CSc1nc2cc3c(cc2c(=O)n1Cc1ccc2c(c1)OCO2)OCO3 (centres undefined),"inconclusive: 39.8 µM [inhibitor, single point]",–
COc1ccc(-c2csc(C3=C(O)CN(Cc4ccc(Cl)cc4)C3=N)n2)cc1OC,–,inactive: -10.2%
Cn1c(=O)c(C(=O)CN2CCCc3ccccc32)c(N)n(Cc2ccccc2)c1=O,"inconclusive: 31.6 µM [inhibitor, single point]",–
O=C(Nc1ccccc1)N1CCC2(CC1)CCN(C(=O)c1cccc(F)c1)CC2,–,inactive: 4.49%
CCOCCSc1nnc2nc(C)cc(C)n12,"inconclusive: 0.0251 µM [inhibitor, full curve, poor fit]",–
NC(=O)C1(NC(=O)[C@@H]2CC3(CC(c4cccc(NC(=O)[C@@H]5CCC(=O)N5)c4)=NO3)CN2C(=O)Cc2ccc(Cl)cc2)CC1 (some centres undefined),"inconclusive: 31.6 µM [activator, single point]",–
CCN(CC)C(=O)c1ccccc1NC(=O)c1cccc(S(=O)(=O)N2CCC(C)CC2)c1,–,inactive: -7.12%
O=C(Cc1ccc(F)cc1)NCCc1csc(-c2ccc(C(F)(F)F)cc2)n1,"inconclusive: 39.8 µM [activator, single point]",–
CCOC(=O)c1ccc(NC(=O)CC2C(=O)N(c3ccc(F)cc3)C(=O)N2CCCOC)cc1 (centres undefined),"inconclusive: 39.8 µM [activator, single point]",–
CCCn1c(=O)c2[nH]c(-c3ccccc3)nc2n(CCC)c1=O,–,inactive: 1.91%
COc1cc2oc3ccccc3c2cc1N(CC(=O)N(C)C)S(=O)(=O)c1ccc(C)cc1,"inconclusive: 39.8 µM [activator, single point]",–
Cc1cc(O)c(CN2CCN(c3ccc(F)cc3)CC2)c2oc(=O)cc(C)c12,"inconclusive: 25.1 µM [inhibitor, single point]",–
Cc1ccc(Nc2nnc(SCC(=O)c3cc4ccccc4o3)s2)cc1C,active: 15.8 µM,–
Cc1cc(=O)n(C)c(=O)n1CCCCCCOc1cccc([N+](=O)[O-])c1,"inconclusive: 39.8 µM [activator, single point]",–

Compound,Potency,"max response, negative = inhibition"
CCCCC(CC)C/C=C1\CC(C(=O)OCC)Oc2ccccc21 (centres undefined) (tested in a mixture with another compound),–,inactive: -3.71%
COc1ccc(-c2cc3ccccc3oc2=O)cc1NC(=O)c1cccnc1,"inconclusive: 39.8 µM [activator, single point]",–
CCOC(=O)C1CCN(C(c2cccnc2)c2c(NC(=O)c3ccco3)sc(C)c2C)CC1 (centres undefined),"inconclusive: 12.6 µM [activator, partial curve]",–
Cc1[nH]n(-c2ccc([N+](=O)[O-])cc2)c(=O)c1C=NCCN1CCN(C(=O)c2ccc(Br)cc2)CC1,"inconclusive: 25.1 µM [activator, single point]",–
CCOc1ccc(-c2cc(CCCC(=O)NCCc3ccc(OC)c(OC)c3OC)no2)cc1,"inconclusive: 12.6 µM [activator, partial curve]",–
O=C(NCc1nnc(SCC(=O)N2CCCCCC2)o1)c1ccco1,–,inactive: -5.55%
Cc1[nH]c2ccccc2c1CN1CCc2ccccc2C1,"inconclusive: 15.8 µM [inhibitor, partial curve, poor fit]",–
COc1ccc(-c2cc(-c3cccs3)c(C#N)c(SCC(=O)NCc3ccco3)n2)cc1,active: 7.94 µM,–
Cc1nn(C)c2c1c(C(F)(F)F)cc(=O)n2CC(=O)NC(C)(C)C,"inconclusive: 20 µM [activator, single point]",–
CCOc1ccc(OCC)c(NC(=O)c2c(C)nn(-c3ccccc3)c2-n2cccc2)c1,"inconclusive: 25.1 µM [inhibitor, partial curve]",–
COc1ccc(CCCc2nnc(SCC(=O)Nc3ccc(Cl)cc3)o2)cc1,"inconclusive: 39.8 µM [inhibitor, single point]",–
CCOc1ccccc1CNC(=O)CN1C(=O)C2CCCCN2c2ccc(C(=O)N(C)C)cc21 (centres undefined),–,inactive: 26.1%
CN(C)c1ccc(NC(=S)N(CCc2ccccc2)C2CC(=O)N(c3c(Cl)cccc3Cl)C2=O)cc1 (centres undefined),active: 15.8 µM,–
O=C(CSc1nc2cc([N+](=O)[O-])ccc2n1-c1ccccc1)NCc1ccc2c(c1)OCO2,–,inactive: -13.6%
COC(=O)c1ccc(NC(=O)c2c(NCc3ccc(OC)c(OC)c3)sc3c2CCCC3)cc1,–,inactive: 21.1%
COC(=O)Cc1ccc(NC(=O)c2ccc(C(C)(C)C)cc2)cc1,"inconclusive: 0.0631 µM [inhibitor, partial curve, poor fit]",–
CCOC(=O)c1cnc(-n2nc(C)cc2C)nc1N(C)C,–,inactive: 9.97%
COc1ccc(N=C2C(=Nc3ccc(OC)cc3)N(c3ccc(N(C)C)cc3)C(=S)N2c2ccc(OC)cc2)cc1,active: 7.94 µM,–
CCN(c1cccc(C(F)(F)F)c1)S(=O)(=O)c1ccc2c(c1)CCN2C(C)=O,"inconclusive: 39.8 µM [activator, single point]",–
O=C(NCc1ccco1)c1ccc2c(=O)n(-c3ccccc3)c(=S)[nH]c2c1,"inconclusive: 39.8 µM [inhibitor, single point]",–
COc1ccc(CCNC(=O)c2cc3c(=O)[nH]c4ccc(C)cc4c3s2)cc1OC,"inconclusive: 10 µM [activator, partial curve]",–
Clc1cc(Sc2ccc(Br)cc2)nnc1-c1ccccc1,"inconclusive: 39.8 µM [inhibitor, single point]",–

Compound,Potency,"max response, negative = inhibition"
Cc1cc(C(=O)NCC(=O)OCC(=O)N2CCCCCC2)ccc1[N+](=O)[O-],active: 15.8 µM,–
CC(=O)c1cccc(NC(=O)c2cc(-c3ccc4c(c3)OCCO4)on2)c1,–,inactive: -1.53%
CCOCCn1c(CN2CCN(c3ccc(F)cc3)CC2)nc2c1c(=O)n(C)c(=O)n2C,–,inconclusive: 105% [activator]
CCOC(=S)SCC(=O)Nc1nc(-c2ccc(Br)cc2)cs1,"inconclusive: 39.8 µM [inhibitor, single point]",–
Cc1cccc(C)c1NC(=O)c1cccc(COc2cc(Cl)ccc2Cl)c1,"inconclusive: 39.8 µM [inhibitor, single point]",–
CSc1ccc(CCNC(=O)c2ccc3c(c2)c(C)c(C)n3Cc2ccc(F)cc2)cc1,active: 15.8 µM,–
CCn1c(-c2ccc(-c3ccccc3)cc2)c[nH]c1=S,active: 10 µM,–
CCN(CC(=O)O)CC(=O)O,–,inactive: 1.41%
CS(=O)(=O)N1CCC(N2CCN(Cc3ccc(F)cc3)C(=O)C2=O)CC1,–,inactive: -9.6%
O=C(COC(=O)c1cc(=O)[nH]c2ccccc12)Nc1nc(-c2cccc(Br)c2)cs1,active: 15.8 µM,–
CC(=O)OC/C=C(C)/C=C/C=C(C)/C=C/C1=C(C)CCCC1(C)C,"inconclusive: 39.8 µM [activator, single point] and inconclusive: 25.1 µM [activator, single point] and inconclusive: 35.5 µM [activator, single point]",–
Cc1nc2sc3c(c2c2nnc(SCC(=O)NCc4ccco4)n12)CCCC3,"inconclusive: 39.8 µM [activator, single point]",–
CCN(CC)C(=O)C1=C(C)Nc2nc3ccccc3n2C1c1ccc(Cl)cc1 (centres undefined),–,inactive: 0.924%
COc1ccccc1CNC(=O)C(Cc1ccccc1)NS(=O)(=O)c1ccc2c(c1)CCN2C(C)=O (centres undefined),–,inactive: -16.4%
Cc1ccc(-c2cc(C(=O)NCCCn3ccnc3)c3cc(Br)ccc3n2)o1,"inconclusive: 39.8 µM [inhibitor, single point]",–
CCOc1cc(NC(=O)c2ccco2)c(OCC)cc1NC(=O)c1cc(OC)c(OC)c(OC)c1,"inconclusive: 20 µM [activator, partial curve]",–
Cc1[nH]c2ccccc2c1C1(O)C(=O)N(Cc2ccc(Cl)cc2)c2ccccc21 (centres undefined),"inconclusive: 39.8 µM [activator, single point]",–
Cc1ccc(NC(=O)NC(=O)CN2C(=O)NC3(CCc4ccccc43)C2=O)c(C)c1 (centres undefined),"inconclusive: 39.8 µM [activator, single point]",–
CCOC(=O)c1cc2c(=O)n3ccccc3nc2n(CC2CCCO2)c1=NC(=O)c1cc(C)cc(C)c1 (centres undefined),–,inactive: -4.97%
COC(=O)c1ccc(NC(=O)C2CCN(S(=O)(=O)c3ccc4c(c3)CCCN4C(C)=O)CC2)cc1,"inconclusive: 39.8 µM [activator, single point]",–
